# Some of the results follow. Single values are uncertain, as repeats are few or missing.
# Assays:
# Experiment in all cases: cell count relative to DMSO control; melanoma cells; higher = more viable cells
# Conditions in all cases: library dose: low library concentration; 72 h
# MZ2-MEL = system: MZ2-MEL
# MeWo = system: MeWo
# RPMI7951 = system: RPMI7951
# RVH-421 = system: RVH-421
# SkMel28 = system: SkMel28
# SkMel30 = system: SkMel30
# UACC62 = system: UACC62
# WM115 = system: WM115
# WM1716 = system: WM1716
# WM1745 = system: WM1745
# WM3526 = system: WM3526
# WM3619 = system: WM3619
# WM451Lu = system: WM451Lu
# SkMel2 = system: SkMel2
# SkMel5 = system: SkMel5
# UACC257 = system: UACC257
# 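Also: cell number obtained by counting DAPI-stained nuclei in high-throughput microscope images with image analysis software, screen run in 1,536-well plates.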
Compound,cell count (MZ2-MEL),cell count (MeWo),cell count (RPMI7951),cell count (RVH-421),cell count (SkMel28),cell count (SkMel30),cell count (UACC62),cell count (WM115),cell count (WM1716),cell count (WM1745),cell count (WM3526),cell count (WM3619),cell count (WM451Lu),cell count (SkMel2),cell count (SkMel5),cell count (UACC257)
"CC1(C)CCC(c2ccc(Cl)cc2)=C(CN2CCN(c3ccc(C(=O)NS(=O)(=O)c4ccc(N[C@H](CCN5CCOCC5)CSc5ccccc5)c(S(=O)(=O)C(F)(F)F)c4)cc3)CC2)C1 + CS(=O)(=O)CCNCc1ccc(-c2ccc3ncnc(Nc4ccc(OCc5cccc(F)c5)c(Cl)c4)c3c2)o1 [lapatinib] (first compound 0.4 µM, partner dose 0.8 µM)",92.4%,55.1%,53.4%,50.1%,92%,63.6%,98.9%,77.6%,71.5%,11.5%,83.5%,86.1%,87.2%,,,
"CC1(C)CCC(c2ccc(Cl)cc2)=C(CN2CCN(c3ccc(C(=O)NS(=O)(=O)c4ccc(N[C@H](CCN5CCOCC5)CSc5ccccc5)c(S(=O)(=O)C(F)(F)F)c4)cc3)CC2)C1 + CC(=O)c1c(C)c2cnc(Nc3ccc(N4CCNCC4)cn3)nc2n(C2CCCC2)c1=O [palbociclib] (first compound 0.4 µM, partner dose 0.04 µM)",79.7%,62.2%,47.5%,71.4%,60.3%,55%,77.3%,58.9%,46%,18.3%,74%,64.4%,74.1%,68.5%,,
"CC1(C)CCC(c2ccc(Cl)cc2)=C(CN2CCN(c3ccc(C(=O)NS(=O)(=O)c4ccc(N[C@H](CCN5CCOCC5)CSc5ccccc5)c(S(=O)(=O)C(F)(F)F)c4)cc3)CC2)C1 + NC1(c2ccc(-c3nc4ccn5c(=O)[nH]nc5c4cc3-c3ccccc3)cc2)CCC1 [MK2206] (first compound 0.4 µM, partner dose 0.4 µM)",95.8%,61.7%,46.3%,55.4%,81.7%,45.8%,87.6%,53.8%,48.8%,3.74%,75.9%,67.4%,82.1%,80.7%,,
"O=C(/C=C/c1cccnc1)NCCCCC1CCN(C(=O)c2ccccc2)CC1 + Nc1nc(F)nc2c1ncn2[C@@H]1O[C@H](CO)[C@@H](O)[C@@H]1O [fludarabine] (first compound 0.01 µM, partner dose 0.2 µM)",,53.9%,107%,48.8%,98.8%,31%,94.1%,92%,83.6%,91.1%,38.7%,91.2%,94.5%,11.3%,,
"Cc1ccc(Nc2nccc(N(C)c3ccc4c(C)n(C)nc4c3)n2)cc1S(N)(=O)=O [Pazopanib] + O=C(O)c1ccc(-c2c[nH]c3ncc(-c4ccccc4)cc23)cc1C1CCCC1 [GSK650394] (first compound 0.4 µM, partner dose 0.16 µM)",,92.8%,91.4%,160%,84.2%,88.1%,104%,106%,97.7%,111%,83.7%,109%,89.8%,95.3%,92.7%,110%
"CC1(C)CCC(c2ccc(Cl)cc2)=C(CN2CCN(c3ccc(C(=O)NS(=O)(=O)c4ccc(N[C@H](CCN5CCOCC5)CSc5ccccc5)c(S(=O)(=O)C(F)(F)F)c4)cc3)CC2)C1 + Cc1cc(Nc2cc(N3CCN(C)CC3)nc(/C=C/c3ccccc3)n2)n[nH]1 [ENMD2076] (first compound 0.4 µM, partner dose 0.04 µM)",96.3%,68%,65%,61.3%,96.4%,62%,80.1%,81.8%,70.4%,3.81%,90.1%,65.1%,77.5%,85.5%,,
"O=C(/C=C/c1cccnc1)NCCCCC1CCN(C(=O)c2ccccc2)CC1 + CCN(CC)CCCCNc1ncc2cc(-c3cc(OC)cc(OC)c3)c(NC(=O)NC(C)(C)C)nc2n1 [PD173074] (first compound 0.01 µM, partner dose 0.1 µM)",,100%,93.2%,44.4%,86.3%,106%,93.5%,90.3%,102%,104%,98.5%,100%,104%,,87.7%,94.2%
"Cc1ccc(Nc2nccc(N(C)c3ccc4c(C)n(C)nc4c3)n2)cc1S(N)(=O)=O [Pazopanib] + Nc1cccc2c1CN(C1CCC(=O)NC1=O)C2=O [lenalidomide] (first compound 0.4 µM, partner dose 1 µM)",75%,106%,82.7%,85.7%,104%,98.7%,92.4%,94.1%,82.1%,84.6%,88.6%,110%,104%,96%,,
"O=C(/C=C/c1cccnc1)NCCCCC1CCN(C(=O)c2ccccc2)CC1 + CC(=O)O[C@@]12CO[C@@H]1C[C@H](O)[C@@]1(C)C(=O)[C@H](O)C3=C(C)[C@@H](OC(=O)[C@H](O)[C@@H](NC(=O)OC(C)(C)C)c4ccccc4)C[C@@](O)([C@@H](OC(=O)c4ccccc4)[C@H]21)C3(C)C [Docetaxel] (first compound 0.01 µM, partner dose 0.0001 µM)",32.9%,47.9%,34.7%,48.8%,42.7%,36.2%,52.1%,77.6%,36.3%,55.6%,46.9%,67.1%,53.8%,29.1%,,
"Cc1ccc(Nc2nccc(N(C)c3ccc4c(C)n(C)nc4c3)n2)cc1S(N)(=O)=O [Pazopanib] + CC(C)CCN1c2nc(Nc3cc(F)c(O)c(F)c3)ncc2N(C)C(=O)C1C [BID1870] (first compound 0.4 µM, partner dose 0.2 µM)",,103%,89.8%,94.3%,87%,84.4%,87.1%,91.9%,88.1%,92.4%,95.6%,85.9%,93.3%,,88.9%,103%
"O=C(/C=C/c1cccnc1)NCCCCC1CCN(C(=O)c2ccccc2)CC1 + CO[C@H]1C[C@@H]2CC[C@@H](C)[C@@](O)(O2)C(=O)C(=O)N2CCCC[C@H]2C(=O)O[C@H]([C@H](C)C[C@@H]2CC[C@@H](OCCO)[C@H](OC)C2)CC(=O)[C@H](C)/C=C(\C)[C@@H](O)[C@@H](OC)C(=O)[C@H](C)C[C@H](C)/C=C/C=C/C=C/1C [everolimus] (first compound 0.01 µM, partner dose 0.02 µM)",44.4%,69.2%,79.2%,67.6%,47.7%,99.4%,82.1%,99.6%,71.5%,88.7%,76.1%,77.4%,84.2%,,,
"CC1(C)CCC(c2ccc(Cl)cc2)=C(CN2CCN(c3ccc(C(=O)NS(=O)(=O)c4ccc(N[C@H](CCN5CCOCC5)CSc5ccccc5)c(S(=O)(=O)C(F)(F)F)c4)cc3)CC2)C1 + O=C(Nc1cccc(Cl)c1)Nc1ncc(CCNc2ncnc3ccsc23)s1 [SNS314] (first compound 0.4 µM, partner dose 0.0008 µM)",,81.2%,61.5%,74.2%,100%,84.9%,91.3%,81.5%,78.1%,12.2%,83.6%,74.1%,81.5%,,68.9%,81.1%
"O=C(/C=C/c1cccnc1)NCCCCC1CCN(C(=O)c2ccccc2)CC1 + C#Cc1cccc(Nc2ncnc3cc(OCCOC)c(OCCOC)cc23)c1 [erlotinib] (first compound 0.01 µM, partner dose 0.8 µM)",,106%,88%,49.5%,91.6%,78.8%,95.8%,94.8%,93%,76.7%,107%,93.7%,104%,34.4%,,
"CC1(C)CCC(c2ccc(Cl)cc2)=C(CN2CCN(c3ccc(C(=O)NS(=O)(=O)c4ccc(N[C@H](CCN5CCOCC5)CSc5ccccc5)c(S(=O)(=O)C(F)(F)F)c4)cc3)CC2)C1 + Cn1cnc2c(F)c(Nc3ccc(Br)cc3Cl)c(C(=O)NOCCO)cc21 [selumetinib] (first compound 0.4 µM, partner dose 0.015 µM)",,61.5%,63.6%,69.3%,96.8%,66.1%,91.7%,69.2%,75.8%,14.5%,81%,77.1%,92.5%,,,
"CC1(C)CCC(c2ccc(Cl)cc2)=C(CN2CCN(c3ccc(C(=O)NS(=O)(=O)c4ccc(N[C@H](CCN5CCOCC5)CSc5ccccc5)c(S(=O)(=O)C(F)(F)F)c4)cc3)CC2)C1 + CO[C@H]1C[C@@H]2CC[C@@H](C)[C@@](O)(O2)C(=O)C(=O)N2CCCC[C@H]2C(=O)O[C@H]([C@H](C)C[C@@H]2CC[C@@H](OCCO)[C@H](OC)C2)CC(=O)[C@H](C)/C=C(\C)[C@@H](O)[C@@H](OC)C(=O)[C@H](C)C[C@H](C)/C=C/C=C/C=C/1C [everolimus] (first compound 0.4 µM, partner dose 0.02 µM)",60.9%,50.6%,45.7%,47.3%,34.9%,49.5%,65.7%,55.3%,61%,18.6%,53.9%,42.2%,73.3%,,,
"Cc1ccc(Nc2nccc(N(C)c3ccc4c(C)n(C)nc4c3)n2)cc1S(N)(=O)=O [Pazopanib] + C[C@@H](Oc1cc(-c2cnn(C3CCNCC3)c2)cnc1N)c1c(Cl)ccc(F)c1Cl [Crizotinib] (first compound 0.4 µM, partner dose 0.2 µM)",72.5%,95.2%,101%,80.5%,90.6%,83.3%,92.6%,96.9%,104%,84.5%,80.5%,88.2%,89.9%,92.5%,,
"CC1(C)CCC(c2ccc(Cl)cc2)=C(CN2CCN(c3ccc(C(=O)NS(=O)(=O)c4ccc(N[C@H](CCN5CCOCC5)CSc5ccccc5)c(S(=O)(=O)C(F)(F)F)c4)cc3)CC2)C1 + Cn1c(=O)n(-c2ccc(C(C)(C)C#N)cc2)c2c3cc(-c4cnc5ccccc5c4)ccc3ncc21 [NVP-BEZ235] (first compound 0.4 µM, partner dose 0.004 µM)",89.8%,64.8%,59.7%,79.4%,93.3%,70.9%,110%,88.6%,79.9%,11%,81%,63.5%,79%,50.9%,,
"Cc1ccc(Nc2nccc(N(C)c3ccc4c(C)n(C)nc4c3)n2)cc1S(N)(=O)=O [Pazopanib] + NC(=O)c1ccc(N(C(N)=O)c2c(F)cccc2F)nc1-c1ccc(F)cc1F [VX702] (first compound 0.4 µM, partner dose 0.4 µM)",76.1%,118%,101%,89.5%,101%,93.9%,98.4%,97.7%,97.8%,83.5%,88.8%,105%,99.5%,112%,,

# Reference: the supplement of paper PMC4604168 (melanoma cell lines)
